Several values for one entry are separate records, joined by “and”; a condition that tells them apart may be missing. Identical values can stand only once. The campaign covered roughly 420,000 compounds. About 50,000 (12%) were called active. Inconclusive means that the source gave no clear call. Such entries were picked first, then a sample of the others. Calls come from the whole dose curve; as a rule, active = well fitted inhibition curve with a large enough effect; inconclusive = small, poorly fitted or top-dose-only effect; inactive = flat fitted curve, though single readings scatter. No potency is given beside an inconclusive call; the fits are too rough.
Assay: qHTS for Inhibitors of human tyrosyl-DNA phosphodiesterase 1 (TDP1): qHTS in cells in presence of CPT; note: nearly all actives have a fitted effect of over 55% in size
Conditions: chicken DT40 Tdp1-/-;hTDP1 cells + 20 nM CPT, ATP luminescence, 48 h; activity change, negative = growth inhibition: at 46.2 µM (top of the series)
Outline: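 Chicken DT40 Tdp1-/- cells complemented with human TDP1, 400 cells/well, exposed to compounds plus 20 nM camptothecin for at least 48 h at 37 C; viability read as ATP content by CellTiter-Glo luminescence.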
% is set by controls: 0 for no effect and ±100 for the full control effect; potency is the fitted concentration of half-maximal effect; tags give direction and shape of the fitted curve.

Compound | Potency | activity change, negative = growth inhibition
O=C(c1cccc(S(=O)(=O)N2CCOCC2)c1)N1CCN(Cc2ccc3c(c2)OCO3)CC1 | inconclusive [inhibitor, single point] | –
Cc1ccc(-n2c(=O)c3oc4ccccc4c3n(Cc3ccccc3)c2=O)cc1C | active: 20.6 µM | –
CCOC(=O)N=Nc1c(O)n(CC(=O)OC)c2ccccc12 | – | inactive: 1.84%
O=C(c1ccccc1F)N1CCN(c2ccc([N+](=O)[O-])c(NCC3CCCO3)c2)CC1 (stereo unspecified) | inconclusive [inhibitor, single point] | –
Cc1oc(-c2ccc(Cl)cc2)nc1CN1CCC(C(=O)NCCCN2CCOCC2)CC1 | active: 29.1 µM | –
Cc1cccc2c1NC1(CCCC1)CC2C (stereo unspecified) | inconclusive [inhibitor, single point] | –
CCc1ccc(NC(=O)C(=O)NCC(O)c2ccccc2)cc1 (stereo unspecified) | – | inactive: -5.55%
COc1ccccc1CN1C[C@@H]2C[C@@H](c3ccc4nsnc4c3)N3CCC[C@@]23C1=O | inconclusive [inhibitor, single point] | –
COC(=O)[C@]12CCCCC=C1N(Cc1ccc(Cl)cc1Cl)C(=O)[C@H](CC(=O)NCCCN1CCCC1=O)C2 | inconclusive [inhibitor, single point] | –
COc1cc(CN2CCN(c3cccc(Cl)c3)CC2)cc(OC)c1OC | active: 7.31 µM | –
COc1ccccc1Oc1nc([N+](=O)[O-])nn1CC(N)=O | – | inactive: -25.4%
COc1cc(C(=O)Nc2sc3c(c2C#N)CCCC3)c(Br)c(OC)c1OC | inconclusive [inhibitor, single point] | –
Cc1ccc(CN2C(=O)C(CC(C)C)Nc3ncnc(N4CCN(c5ccccc5)CC4)c32)cc1 (stereo unspecified) | active: 18.4 µM and active: 14.6 µM | –
Cc1ccccc1N1CCN(Cc2nc(Cc3ccccc3)no2)CC1 | inconclusive [inhibitor, partial curve, poor fit] | –
Cc1cccnc1C1=NOC(Cc2ccccc2)C(=O)N1Cc1ccccc1F (stereo unspecified) | inconclusive [inhibitor, single point] | –
CN(C)C=Nc1nonc1-c1ccc(Cl)cc1 | – | inactive: 1.13%
Cc1ccc(NC(=O)CCc2nc(-c3ccccc3F)no2)c(C)c1 | inconclusive [inhibitor, partial curve] | –
O=C(/C=C/c1ccco1)N1CCCC(c2ccccc2)C1 (stereo unspecified) | inconclusive [inhibitor, single point] | –
Cc1cc(C(=O)COC(=O)c2ccc(N)c([N+](=O)[O-])c2)c(C)n1-c1ccc2c(c1)OCO2 | active: 9.2 µM | –
Cc1ccccc1NC(=S)NC(C)CCc1ccccc1 (stereo unspecified) | inconclusive [inhibitor, single point] | –
COc1ccc(/C=C/C(=O)c2c(O)c(OC)c3occc3c2OC)cc1 | inconclusive [inhibitor, single point] | –
CCn1c(=O)c(C(=O)NCc2ccccc2Cl)c(O)c2ccccc21 | inconclusive [inhibitor, single point] | –
CCc1nnc(N/N=C/c2ccc(O)c(OC)c2)n1N | inconclusive [inhibitor, single point] | –
CCOc1ccccc1CNC(=O)c1ccc2c(c1)N(CC)CCS2 | active: 16.4 µM and active: 14.6 µM | –

Compound | Potency | activity change, negative = growth inhibition
CN(CC(=O)Nc1cccc(F)c1)C(=O)CSc1nc2ccccc2s1 | – | inactive: -11.7%
C=CCN(C(=O)COc1ccccc1)c1nnc(-c2ccncc2)s1 | – | inactive: -4.27%
CC(C)CC(O)(c1ccccc1)C(CN1CCOCC1)c1ccccc1 (stereo unspecified) | inconclusive [inhibitor, single point] | –
O=C(c1ccc(-c2cccc(C(F)(F)F)c2)o1)N1CCCCCCC1 | – | inconclusive: -36.7% [inhibitor]
COc1cc(/C=N/NC(=O)c2cc(C)oc2C)ccc1OCc1ccccc1 | inconclusive [inhibitor, partial curve] | –
Cc1ccc(-n2nc(C(=O)NC(C)C)c(=O)n(C)c2=O)cc1 | – | inactive: -15.8%
CCCCCCS(=O)[C@H]1CS(=O)(=O)C[C@@H]1S(=O)CCCCCC (stereo partly specified) | active: 23.1 µM | –
CCSc1nc(N2CCOCC2)c2c(c1C#N)CC(C)(C)N(C)C2 | inconclusive [inhibitor, single point] | –
Cc1c(C(=O)NCCCN2CCOCC2)oc2c1C1(CCC2)SCCS1 | active: 11.6 µM | –
CC(=O)C1=CCC(c2ccccc2)N(S(=O)(=O)c2ccc(C)cc2)C1 (stereo unspecified) | inconclusive [inhibitor, single point] | –
Cc1c(C(=O)N2CCCc3ccccc32)sc2nc(-c3ccccc3)cn12 | inconclusive [inhibitor, single point] | –
CS(=O)(=O)c1ncc(Cl)c(C(=O)N(Cc2ccc(Cl)cc2)Cc2ccco2)n1 | active: 0.651 µM | –
COC(=O)[C@]1(C)CCC[C@@]2(C)C3CC[C@@]4(C)C[C@]3(CC[C@H]12)C[C@H]4O (stereo partly specified) | inconclusive [inhibitor, single point] | –
Cc1cccc(OCC(=O)Nc2nnc(S(=O)(=O)N3CCCCCC3)s2)c1 | inactive | –
CC1(C)CC(C)(c2ccc(O)cc2O)N(c2ccc3ccccc3c2)C(=S)N1 (stereo unspecified) | inconclusive [inhibitor, partial curve, poor fit] | –
O=C(O)c1cccc(-n2cccc2/C=C2\SC(=O)N(Cc3ccccc3F)C2=O)c1 | – | inactive: -25.7%
CC(C)C1=Nc2cccc3cccc(c23)N1 | inconclusive [inhibitor, single point] | –
O=C(COc1ccc(Cl)cc1Cl)Nc1ccc(CN2CCOCC2)cc1 | inconclusive [inhibitor, single point] | –
COc1cccc(/C=C/c2ccncc2)c1OC | inconclusive [inhibitor, single point] | –
Cc1oc(-c2ccccc2Cl)nc1CS(=O)CC(=O)N1CCN(c2cccc(C(F)(F)F)c2)CC1 (stereo unspecified) | active: 9.2 µM | –
CCOc1cc(/C=N/Nc2nc(N3CCCCC3)nc(N3CCCCC3)n2)ccc1OC(=O)c1ccco1 | inconclusive [inhibitor, single point] | –
Clc1ccc(-n2nnnc2-c2cnc3ccccc3c2-c2ccccc2)cc1 | inconclusive [inhibitor, single point] | –
COc1ccccc1N1CCN(C(=O)CSc2nc(C)c(C)c(=O)[nH]2)CC1 | – | inactive: -10.4%
Cc1cc(C)n(CC(=O)Nc2ccc([N+](=O)[O-])cc2)n1 | inconclusive [inhibitor, single point] | –

Compound | Potency | activity change, negative = growth inhibition
Cc1cc(OC(F)F)ccc1NC(=S)NC1CCCC1 | – | inactive: -0.788%
O=C(CNS(=O)(=O)c1ccc(F)cc1)N1CCN(c2ccc(F)cc2)CC1 | inconclusive [inhibitor, single point] | –
CCOc1cccc(-c2c(C(=O)N/N=C/c3ccoc3)nnn2-c2nonc2N)c1 | inconclusive [inhibitor, single point] | –
O=C(CN1C(=O)/C(=C\c2ccc(C(F)(F)F)cc2)Sc2ccccc21)NCc1ccco1 | active: 18.4 µM | –
COC(=O)c1ccc(COC(=O)CNC(=O)c2cccc(OC)c2)o1 | – | inactive: 1.46%
CCCn1c(=O)c(C(=O)NCCc2ccc(Cl)cc2)c(O)c2ccccc21 | inconclusive [inhibitor, single point] | –
Cc1nnc(NC(=O)c2csc3c2CCC(C)C3)s1 (stereo unspecified) | – | inactive: -16%
COc1ccc(C(C)(O)c2nc(-c3cccc(F)c3)cs2)cc1 (stereo unspecified) | inconclusive [inhibitor, single point] | –
O=C(Nc1cccc(F)c1)c1cc(S(=O)(=O)NCCC2=CCCCC2)ccc1F | inconclusive [inhibitor, single point] | –
Cn1nnnc1SCCCNCc1cc(Br)ccc1OCc1ccccc1 | active: 23.1 µM | –
Cc1nn(Cc2ccccc2)c(C)c1NC(=O)c1ccc([N+](=O)[O-])cc1[N+](=O)[O-] | inconclusive [inhibitor, single point] | –
O=C(c1cc2ccccc2oc1=O)N(Cc1ccccc1)Cc1ccc2c(c1)OCO2 | inconclusive [inhibitor, single point] | –
CC1=C(C(=O)O)N2C(=O)C(NC(=O)C(N)C3=CCC=CC3)C2SC1 (stereo unspecified) | inconclusive [inhibitor, single point] | –
CC(=O)c1ccc(NC(=O)Nc2ccc(S(=O)(=O)N3CCCC3)cc2)cc1 | inconclusive [inhibitor, single point] | –
O=C(O)CC1(CC(=O)Nc2ccc(Br)cc2)CCCCC1 | – | inactive: 3.63%
N/C(=N\OC(=O)c1ccc(Cl)cc1[N+](=O)[O-])c1ccccn1 | inconclusive [inhibitor, partial curve, poor fit] | –
COC(=O)c1cnn(-c2ccc(F)cc2F)c1/C=N/NC(=S)NC(C)(C)C | inconclusive [inhibitor, single point] | –
COc1ccncc1-c1ccccc1C1=CC(=O)CC(C)(C)C1=O | – | inactive: -12.3%
COc1ccc(Oc2ncc3nc(-c4cc(F)cc(F)c4)c(=O)n(CCC#N)c3n2)cc1 | – | inactive: -26.1%
Cc1nc2sccn2c(=O)c1S(=O)(=O)Nc1ccc(N2CCN(C)CC2)cc1 | inactive | –
CCc1nc(C)cn1S(=O)(=O)c1cc(OC)c(C)cc1C | inconclusive [inhibitor, single point] | –
Fc1cccc(CN2CCN(Cc3nc(CCc4ccccc4)no3)CC2)c1 | inconclusive [inhibitor, single point] | –
Cc1csc(=O)n1CC(=O)OCC(=O)Nc1ccc(Cl)cc1F | – | inactive: -17.3%
